According to PubChem BioAssay AID493208 (National Center for Advancing Translational Sciences (NCATS), 2011):
Screen size: about 44,000 compounds; about 340 (0.77%) were called active. About 5% were inconclusive and are not listed. Calls follow the shape of the dose curve; as a rule, active = well fitted inhibition curve with a large enough effect; inconclusive = small, poorly fitted or top-dose-only effect; inactive = flat fitted curve, though single readings scatter. The list shows a part of the results.

Assay: Acumen qHTS Assay for Inhibitors of the mTORC1 Signaling Pathway in MEF (Tsc2-/-, p53-/-) Cells: Sytravon;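 also: plate controls were DMSO for no effect and rapamycin for full effect; nearly all actives have a fitted effect of over 50% in size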
Details: phospho-rpS6 immunofluorescence/PI, 24 h; series mostly up to 38.3 µM; activity change, negative = inhibition: at the top concentration
Outline: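 Compounds act on Tsc2-/-, p53-/- fibroblasts carrying an empty vector for 24 h before fixation and dual staining for phospho-S6 and DNA (propidium iodide). Values are percentages of cells above a rapamycin-defined pS6/PI threshold.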

Activity change, negative = inhibition, inactive:
COc1ccccc1-c1noc(-c2ccc(NCc3ccccc3)c([N+](=O)[O-])c2)n1 -0.327%, CCOc1ccc(NC(=O)Nc2cccc(C)n2)cc1 -2.51%, Cc1ccc(-n2nc3c(N4CCC(C(=O)NCCc5ccccc5)CC4)nnc(C)c3c2C)cc1 -4.69%, COCCCN1CN=C(NS(=O)(=O)c2ccc(NC(C)=O)cc2)NC1 -15.2%, COc1ccc(C)cc1NC(=O)CN(C)S(=O)(=O)c1ccc2c(c1)CCCN2C(C)=O -4.63%, COc1ccc(N2Cc3cccc(C(=O)Nc4ccc(C)cc4)c3C2=O)cc1 -13.6%, CCOC(=O)c1sc2ccccc2c1S(=O)(=O)N1CCN(c2ccccc2F)CC1 -12.9%, COc1ccc(C)cc1NC(=O)CN1C(=O)CSc2ccc(S(=O)(=O)N3CCCC3)cc21 -1.81%, CC1=C(c2cccc(Cl)c2)S(=O)(=O)NC1=NCc1ccccc1C -6.65%, CCC(=O)N1CCc2cc(S(=O)(=O)N3CCN(c4ccccc4F)CC3)ccc21 -2.56%, COc1cc(OC)c(NC(=O)Cn2nc(C)n3cccc3c2=O)cc1Cl 5.1%, COc1ccc(-c2cn3nc(N4CCC(C(=O)NCc5cccc(Cl)c5)CC4)sc3n2)cc1 -8.78%, COc1cc(-c2noc(-c3ccc(N4CCCC4)c([N+](=O)[O-])c3)n2)cc(OC)c1OC -1.05%, CC(=O)N1CCc2c(sc3c2c(=O)n(Cc2ccccc2)c(=O)n3Cc2cccc(Cl)c2)C1 -0.153%, Cc1ccccc1Cn1cnc2c(oc3ccccc32)c1=O 7.59%, CCC(=O)N1CCc2cc(CNC(=O)Cc3ccc(OC)c(OC)c3)ccc21 1.95%, CC1=Nc2cc(C(=O)NC3CCC(C)CC3)ccc2Sc2c(C)ccc(C)c21 (stereo unspecified) -10.5%, COc1cc(C(=O)N2CCc3c([nH]c4ccccc34)C2c2ccc(F)cc2)cc(OC)c1OC (stereo unspecified) -7.86%, COc1ccc(NC(=O)c2ccc3c(c2)N(Cc2cccc(Cl)c2)C(=O)c2ccccc2S3(=O)=O)cc1Cl -3.63%, CCN(CC)C(=O)Cn1ncc2c([nH]c3ccc(C)cc32)c1=O 4.6%, CCOc1ccccc1CNC(=O)C1CCN(C(=O)N2CCOc3ccc(Cl)cc32)CC1 3.5%, Cc1ccc(-n2nc(C(=O)NCc3ccc(F)cc3Cl)c3c4ccccc4n(C)c3c2=O)cc1 -1.46%, FC(F)(F)c1ccc2c(c1)ncc1c(-c3ccccc3)nn(-c3ccccc3)c12 -1.06%, Cc1cn2c(=O)cc(COC(=O)c3cccc(NC(=O)COc4ccccc4)c3)nc2s1 7.38%, CCOC(=O)c1c(NC(=O)CSc2cn(CCNC(=O)c3ccc(OC)c(OC)c3)c3ccccc23)sc2c1CCC2 -16.8%, Cc1cccc(N2CCN(c3nc4ccc(C(=O)c5ccccc5)cc4n4cnnc34)CC2C)c1 (stereo unspecified) 0%
